Experimental data as given in patent US20220265847A1, “METHODS AND COMPOSITIONS FOR TREATING NON-SMALL CELL LUNG CANCER” (Board of Regents, The University of Texas System, priority 2019, published 2022).

Experiments:
H1975 OR16 = test: CD70 ADC relative cell viability; assay type: cell-based
Source text: (§1) FIG. 14A-C. CD70 antibody-drug conjugates (ADCs) target CD70+ EGFR TKI resistant cell in vitro.
(§2) To determine whether CD70 antibody drug conjugates (ADCs) are a valid approach for targeting EGFR TKI resistant cells, the inventors treated H1975 cells (CD70 low and EGFR TKI sensitive) and H1975 OR5 and H1975 OR16 (both EGFR TKI resistant and CD70 high) with increasing concentrations of the CD70 ADCs cuzatuzumab-MMAE or vorsetuzumab-MMAE. […] The inventors further observed an additive anti-tumor cell effect when osimertinib was combined with anti-CD70 ADCs. (FIG. 15).

H1975 OR5 = test: CD70 ADC relative cell viability; assay type: cell-based
Source text: as §1, §2

B1: cuzatuzumab-MMAE (conjugate, chains of the INN, looked up)
heavy: EVQLVESGGGLVQPGGSLRLSCAASGFTFSVYYMNWVRQAPGKGLEWVSDINNEGGTTYYADSVKGRFTISRDNSKNSLYLQMNSLRAEDTAVYYCARDAGYSNHVPIFDSWGQGTLVTVSS[no letters for human IgG1 constant region]
light: QAVVTQEPSLTVSPGGTVTLTCGLKSGSVTSDNFPTWYQQTPGQAPRLLIYNTNTRHSGVPDRFSGSILGNKAALTITGAQADDEAEYFCALFISNPSVEFGGGTQLTVLGQPKAAPSVTLFPPSSEELQANKATLVCLISDFYPGAVTVAWKADSSPVKAGVETTTPSKQSNNKYAASSYLSLTPEQWKSHRSYSCQVTHEGSTVEKTVAPTECS
modifications: MMAE payload
- anti-tumor cell activity (relative cell viability) (H1975 OR16; H1975 OR16, CD70 high, EGFR TKI resistant, FIG. 14): anti-tumor cell activity
- sensitivity to CD70 ADC versus H1975 parental cells (H1975 OR16; H1975 OR16 vs H1975 parental (CD70 low), increasing concentrations, FIG. 14 and 16): more sensitive
- anti-tumor cell activity (relative cell viability) (H1975 OR5; H1975 OR5, CD70 high, EGFR TKI resistant, FIG. 14): anti-tumor cell activity
- sensitivity to CD70 ADC versus H1975 parental cells (H1975 OR5; H1975 OR5 vs H1975 parental (CD70 low), increasing concentrations, FIG. 14 and 16): more sensitive
